Assay results as given in the supplement of paper PMC12230231.
± gives the standard deviation of the averaged measurements. Restriction of a single-cycle SIVsab GFP reporter by TRIM5α v1-loop variants in CRFK cells. Human variants: read share among cells still uninfected after two challenges over input, higher = gained restriction. Rhesus variants: share among infected cells over input, higher = lost restriction. Reporter dose not given per row. No active / inactive call per row; the paper calls a change when both replicates lie above its controls (mean + 2 SD of stop or wild-type variants, or the top frameshift score). Residues outside the varied loop are taken from Swiss-Prot. The paper reads the human single-substitution scores as noise; they and the rhesus combinations repeat poorly (rank correlation 0.3 to 0.4), indel scores repeat only for the top variants, rhesus substitutions well (0.9).

Tested on: SIVsab (simian immunodeficiency virus of sabaeus monkeys), single-cycle GFP reporter, in CRFK cells
Experiment: enrichment among infected cells over input (fold); higher = weaker restriction
Conditions: library: human / rhesus combinations
Experimental: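 Pools of CRFK cells expressing variants of the TRIM5α v1 loop were challenged with the single-cycle reporter, sorted by GFP and sequenced; mean of two replicates.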

Sequence | enrichment
MASGILLNVKEEVTCPICLELLTEPLSLHCGHSFCQACITANHKKSMLYKEGERSCPVCRISYQPENIQPNRHVANIVEKLREVKLSPEEGQKVDHCARHGEKLLLFCQEDSKVICWLCERSQEHRGHHTFLMEEVAQEYHVKLQTALEMLRQKQQEAEKLEADIREEKASWKIQIDYDKTNVSADFEQLREILDWEESNELQNLEKEEEDILKSLTKSETEMVQQTQYMRELISELEHRLQGSMMDLLQGVDGIIKRIENMTLKKPKTFHKNQRRVFRAPDLKGMLDMFRELTDARRYWVDVTLAPNNISHAVIAEDKRQVSSRNPQIMYQARGTRYTFQSFTNFNYCTGVLGSQSITSGKHYWEVDVSKKSAWILGVCAGFQSDAMYNIEQNENYQPKYGYWVIGLQEGVKYSVFQDGSSHTPFAPFIVPLSVIICPDRVGVFVDYEACTVSFFNITNHGFLIYKFSQCSFSKPVFPYLNPRKCTVPMTLCSPSS [rhesus TRIM5α, 332-344 = QARGTRYTFQSFT] | 1.18 ± 0.63
MASGILLNVKEEVTCPICLELLTEPLSLHCGHSFCQACITANHKKSMLYKEGERSCPVCRISYQPENIQPNRHVANIVEKLREVKLSPEEGQKVDHCARHGEKLLLFCQEDSKVICWLCERSQEHRGHHTFLMEEVAQEYHVKLQTALEMLRQKQQEAEKLEADIREEKASWKIQIDYDKTNVSADFEQLREILDWEESNELQNLEKEEEDILKSLTKSETEMVQQTQYMRELISELEHRLQGSMMDLLQGVDGIIKRIENMTLKKPKTFHKNQRRVFRAPDLKGMLDMFRELTDARRYWVDVTLAPNNISHAVIAEDKRQVSSRNPQIMYQAPGTLFTFPTFVNFNYCTGVLGSQSITSGKHYWEVDVSKKSAWILGVCAGFQSDAMYNIEQNENYQPKYGYWVIGLQEGVKYSVFQDGSSHTPFAPFIVPLSVIICPDRVGVFVDYEACTVSFFNITNHGFLIYKFSQCSFSKPVFPYLNPRKCTVPMTLCSPSS [rhesus TRIM5α, 332-344 = QAPGTLFTFPTFV] | 0.432 ± 0.51
MASGILLNVKEEVTCPICLELLTEPLSLHCGHSFCQACITANHKKSMLYKEGERSCPVCRISYQPENIQPNRHVANIVEKLREVKLSPEEGQKVDHCARHGEKLLLFCQEDSKVICWLCERSQEHRGHHTFLMEEVAQEYHVKLQTALEMLRQKQQEAEKLEADIREEKASWKIQIDYDKTNVSADFEQLREILDWEESNELQNLEKEEEDILKSLTKSETEMVQQTQYMRELISELEHRLQGSMMDLLQGVDGIIKRIENMTLKKPKTFHKNQRRVFRAPDLKGMLDMFRELTDARRYWVDVTLAPNNISHAVIAEDKRQVSSRNPQIMYQARGTRYTFPSLTNFNYCTGVLGSQSITSGKHYWEVDVSKKSAWILGVCAGFQSDAMYNIEQNENYQPKYGYWVIGLQEGVKYSVFQDGSSHTPFAPFIVPLSVIICPDRVGVFVDYEACTVSFFNITNHGFLIYKFSQCSFSKPVFPYLNPRKCTVPMTLCSPSS [rhesus TRIM5α, 332-344 = QARGTRYTFPSLT] | 0.903 ± 0.097
MASGILLNVKEEVTCPICLELLTEPLSLHCGHSFCQACITANHKKSMLYKEGERSCPVCRISYQPENIQPNRHVANIVEKLREVKLSPEEGQKVDHCARHGEKLLLFCQEDSKVICWLCERSQEHRGHHTFLMEEVAQEYHVKLQTALEMLRQKQQEAEKLEADIREEKASWKIQIDYDKTNVSADFEQLREILDWEESNELQNLEKEEEDILKSLTKSETEMVQQTQYMRELISELEHRLQGSMMDLLQGVDGIIKRIENMTLKKPKTFHKNQRRVFRAPDLKGMLDMFRELTDARRYWVDVTLAPNNISHAVIAEDKRQVSSRNPQIMYGAPGTLFTFQSFVNFNYCTGVLGSQSITSGKHYWEVDVSKKSAWILGVCAGFQSDAMYNIEQNENYQPKYGYWVIGLQEGVKYSVFQDGSSHTPFAPFIVPLSVIICPDRVGVFVDYEACTVSFFNITNHGFLIYKFSQCSFSKPVFPYLNPRKCTVPMTLCSPSS [rhesus TRIM5α, 332-344 = GAPGTLFTFQSFV] | 0.712 ± 0.14
MASGILLNVKEEVTCPICLELLTEPLSLHCGHSFCQACITANHKKSMLYKEGERSCPVCRISYQPENIQPNRHVANIVEKLREVKLSPEEGQKVDHCARHGEKLLLFCQEDSKVICWLCERSQEHRGHHTFLMEEVAQEYHVKLQTALEMLRQKQQEAEKLEADIREEKASWKIQIDYDKTNVSADFEQLREILDWEESNELQNLEKEEEDILKSLTKSETEMVQQTQYMRELISELEHRLQGSMMDLLQGVDGIIKRIENMTLKKPKTFHKNQRRVFRAPDLKGMLDMFRELTDARRYWVDVTLAPNNISHAVIAEDKRQVSSRNPQIMYGARGTRFQSFTNFNYCTGVLGSQSITSGKHYWEVDVSKKSAWILGVCAGFQSDAMYNIEQNENYQPKYGYWVIGLQEGVKYSVFQDGSSHTPFAPFIVPLSVIICPDRVGVFVDYEACTVSFFNITNHGFLIYKFSQCSFSKPVFPYLNPRKCTVPMTLCSPSS [rhesus TRIM5α, 332-344 = GARGTRFQSFT] | 3.57 ± 4.1
MASGILLNVKEEVTCPICLELLTEPLSLHCGHSFCQACITANHKKSMLYKEGERSCPVCRISYQPENIQPNRHVANIVEKLREVKLSPEEGQKVDHCARHGEKLLLFCQEDSKVICWLCERSQEHRGHHTFLMEEVAQEYHVKLQTALEMLRQKQQEAEKLEADIREEKASWKIQIDYDKTNVSADFEQLREILDWEESNELQNLEKEEEDILKSLTKSETEMVQQTQYMRELISELEHRLQGSMMDLLQGVDGIIKRIENMTLKKPKTFHKNQRRVFRAPDLKGMLDMFRELTDARRYWVDVTLAPNNISHAVIAEDKRQVSSRNPQIMYQARGTLFTFPSFVNFNYCTGVLGSQSITSGKHYWEVDVSKKSAWILGVCAGFQSDAMYNIEQNENYQPKYGYWVIGLQEGVKYSVFQDGSSHTPFAPFIVPLSVIICPDRVGVFVDYEACTVSFFNITNHGFLIYKFSQCSFSKPVFPYLNPRKCTVPMTLCSPSS [rhesus TRIM5α, 332-344 = QARGTLFTFPSFV] | 0.25 ± 0.28
MASGILLNVKEEVTCPICLELLTEPLSLHCGHSFCQACITANHKKSMLYKEGERSCPVCRISYQPENIQPNRHVANIVEKLREVKLSPEEGQKVDHCARHGEKLLLFCQEDSKVICWLCERSQEHRGHHTFLMEEVAQEYHVKLQTALEMLRQKQQEAEKLEADIREEKASWKIQIDYDKTNVSADFEQLREILDWEESNELQNLEKEEEDILKSLTKSETEMVQQTQYMRELISELEHRLQGSMMDLLQGVDGIIKRIENMTLKKPKTFHKNQRRVFRAPDLKGMLDMFRELTDARRYWVDVTLAPNNISHAVIAEDKRQVSSRNPQIMYGARGTLFTFPSFVNFNYCTGVLGSQSITSGKHYWEVDVSKKSAWILGVCAGFQSDAMYNIEQNENYQPKYGYWVIGLQEGVKYSVFQDGSSHTPFAPFIVPLSVIICPDRVGVFVDYEACTVSFFNITNHGFLIYKFSQCSFSKPVFPYLNPRKCTVPMTLCSPSS [rhesus TRIM5α, 332-344 = GARGTLFTFPSFV] | 0.031 ± 0.014
MASGILLNVKEEVTCPICLELLTEPLSLHCGHSFCQACITANHKKSMLYKEGERSCPVCRISYQPENIQPNRHVANIVEKLREVKLSPEEGQKVDHCARHGEKLLLFCQEDSKVICWLCERSQEHRGHHTFLMEEVAQEYHVKLQTALEMLRQKQQEAEKLEADIREEKASWKIQIDYDKTNVSADFEQLREILDWEESNELQNLEKEEEDILKSLTKSETEMVQQTQYMRELISELEHRLQGSMMDLLQGVDGIIKRIENMTLKKPKTFHKNQRRVFRAPDLKGMLDMFRELTDARRYWVDVTLAPNNISHAVIAEDKRQVSSRNPQIMYGAPGTLYTFQSLTNFNYCTGVLGSQSITSGKHYWEVDVSKKSAWILGVCAGFQSDAMYNIEQNENYQPKYGYWVIGLQEGVKYSVFQDGSSHTPFAPFIVPLSVIICPDRVGVFVDYEACTVSFFNITNHGFLIYKFSQCSFSKPVFPYLNPRKCTVPMTLCSPSS [rhesus TRIM5α, 332-344 = GAPGTLYTFQSLT] | 0.829 ± 0.28
MASGILLNVKEEVTCPICLELLTEPLSLHCGHSFCQACITANHKKSMLYKEGERSCPVCRISYQPENIQPNRHVANIVEKLREVKLSPEEGQKVDHCARHGEKLLLFCQEDSKVICWLCERSQEHRGHHTFLMEEVAQEYHVKLQTALEMLRQKQQEAEKLEADIREEKASWKIQIDYDKTNVSADFEQLREILDWEESNELQNLEKEEEDILKSLTKSETEMVQQTQYMRELISELEHRLQGSMMDLLQGVDGIIKRIENMTLKKPKTFHKNQRRVFRAPDLKGMLDMFRELTDARRYWVDVTLAPNNISHAVIAEDKRQVSSRNPQIMYGARGTRFTFPSLVNFNYCTGVLGSQSITSGKHYWEVDVSKKSAWILGVCAGFQSDAMYNIEQNENYQPKYGYWVIGLQEGVKYSVFQDGSSHTPFAPFIVPLSVIICPDRVGVFVDYEACTVSFFNITNHGFLIYKFSQCSFSKPVFPYLNPRKCTVPMTLCSPSS [rhesus TRIM5α, 332-344 = GARGTRFTFPSLV] | 1.19 ± 1.1
MASGILLNVKEEVTCPICLELLTEPLSLHCGHSFCQACITANHKKSMLYKEGERSCPVCRISYQPENIQPNRHVANIVEKLREVKLSPEEGQKVDHCARHGEKLLLFCQEDSKVICWLCERSQEHRGHHTFLMEEVAQEYHVKLQTALEMLRQKQQEAEKLEADIREEKASWKIQIDYDKTNVSADFEQLREILDWEESNELQNLEKEEEDILKSLTKSETEMVQQTQYMRELISELEHRLQGSMMDLLQGVDGIIKRIENMTLKKPKTFHKNQRRVFRAPDLKGMLDMFRELTDARRYWVDVTLAPNNISHAVIAEDKRQVSSRNPQIMYGARGTRFTFPSFVNFNYCTGVLGSQSITSGKHYWEVDVSKKSAWILGVCAGFQSDAMYNIEQNENYQPKYGYWVIGLQEGVKYSVFQDGSSHTPFAPFIVPLSVIICPDRVGVFVDYEACTVSFFNITNHGFLIYKFSQCSFSKPVFPYLNPRKCTVPMTLCSPSS [rhesus TRIM5α, 332-344 = GARGTRFTFPSFV] | 1.66 ± 1.2
MASGILLNVKEEVTCPICLELLTEPLSLHCGHSFCQACITANHKKSMLYKEGERSCPVCRISYQPENIQPNRHVANIVEKLREVKLSPEEGQKVDHCARHGEKLLLFCQEDSKVICWLCERSQEHRGHHTFLMEEVAQEYHVKLQTALEMLRQKQQEAEKLEADIREEKASWKIQIDYDKTNVSADFEQLREILDWEESNELQNLEKEEEDILKSLTKSETEMVQQTQYMRELISELEHRLQGSMMDLLQGVDGIIKRIENMTLKKPKTFHKNQRRVFRAPDLKGMLDMFRELTDARRYWVDVTLAPNNISHAVIAEDKRQVSSRNPQIMYGAPGTRFTFQTLTNFNYCTGVLGSQSITSGKHYWEVDVSKKSAWILGVCAGFQSDAMYNIEQNENYQPKYGYWVIGLQEGVKYSVFQDGSSHTPFAPFIVPLSVIICPDRVGVFVDYEACTVSFFNITNHGFLIYKFSQCSFSKPVFPYLNPRKCTVPMTLCSPSS [rhesus TRIM5α, 332-344 = GAPGTRFTFQTLT] | 1.17 ± 0.29
MASGILLNVKEEVTCPICLELLTEPLSLHCGHSFCQACITANHKKSMLYKEGERSCPVCRISYQPENIQPNRHVANIVEKLREVKLSPEEGQKVDHCARHGEKLLLFCQEDSKVICWLCERSQEHRGHHTFLMEEVAQEYHVKLQTALEMLRQKQQEAEKLEADIREEKASWKIQIDYDKTNVSADFEQLREILDWEESNELQNLEKEEEDILKSLTKSETEMVQQTQYMRELISELEHRLQGSMMDLLQGVDGIIKRIENMTLKKPKTFHKNQRRVFRAPDLKGMLDMFRELTDARRYWVDVTLAPNNISHAVIAEDKRQVSSRNPQIMYGAPGTLYTFQTLVNFNYCTGVLGSQSITSGKHYWEVDVSKKSAWILGVCAGFQSDAMYNIEQNENYQPKYGYWVIGLQEGVKYSVFQDGSSHTPFAPFIVPLSVIICPDRVGVFVDYEACTVSFFNITNHGFLIYKFSQCSFSKPVFPYLNPRKCTVPMTLCSPSS [rhesus TRIM5α, 332-344 = GAPGTLYTFQTLV] | 1.14 ± 0.02
